# Measurements from PubChem BioAssay AID504332 (National Center for Advancing Translational Sciences (NCATS), 2011).
# About 31,000 (8.9%) of roughly 350,000 compounds were called active. Inconclusive results, whose numbers are uncertain, are shown with a selection of clear calls. Calls follow the shape of the dose curve; as a rule, active = well fitted inhibition curve with a large enough effect; inconclusive = small, poorly fitted or top-dose-only effect; inactive = no such curve, though single readings can be large or run the other way. Potencies of inconclusive entries are doubtful fits and often do not repeat.
# Biological target: Histone-lysine N-methyltransferase EHMT2 (Homo sapiens) (UniProt Q96KQ7)
# Assay: qHTS Assay for Inhibitors of Histone Lysine Methyltransferase G9a; also: nearly all actives have a fitted effect of over 75% in size
# Conditions: G9a H3K9 monomethylation, AlphaScreen, 2 h; activity, negative = inhibition: at 59 µM (top of the series) unless noted
# Summary of the method: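 AlphaScreen detection with an anti-monomethyl H3K9 antibody quantified product after a 2 h room-temperature reaction containing 500 nM biotinylated H3K9 peptide, 20 µM SAM and 20 nM enzyme, which had been preincubated 15 min with compound.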
# % is scaled to controls: 0 for no effect and ±100 for the full control effect; potency is read from the fitted curve at half-maximal effect; tags tell the direction and shape of the fitted curve.
# UniProt Q96KQ7, sequence (Q96KQ7 whole entry, looked up): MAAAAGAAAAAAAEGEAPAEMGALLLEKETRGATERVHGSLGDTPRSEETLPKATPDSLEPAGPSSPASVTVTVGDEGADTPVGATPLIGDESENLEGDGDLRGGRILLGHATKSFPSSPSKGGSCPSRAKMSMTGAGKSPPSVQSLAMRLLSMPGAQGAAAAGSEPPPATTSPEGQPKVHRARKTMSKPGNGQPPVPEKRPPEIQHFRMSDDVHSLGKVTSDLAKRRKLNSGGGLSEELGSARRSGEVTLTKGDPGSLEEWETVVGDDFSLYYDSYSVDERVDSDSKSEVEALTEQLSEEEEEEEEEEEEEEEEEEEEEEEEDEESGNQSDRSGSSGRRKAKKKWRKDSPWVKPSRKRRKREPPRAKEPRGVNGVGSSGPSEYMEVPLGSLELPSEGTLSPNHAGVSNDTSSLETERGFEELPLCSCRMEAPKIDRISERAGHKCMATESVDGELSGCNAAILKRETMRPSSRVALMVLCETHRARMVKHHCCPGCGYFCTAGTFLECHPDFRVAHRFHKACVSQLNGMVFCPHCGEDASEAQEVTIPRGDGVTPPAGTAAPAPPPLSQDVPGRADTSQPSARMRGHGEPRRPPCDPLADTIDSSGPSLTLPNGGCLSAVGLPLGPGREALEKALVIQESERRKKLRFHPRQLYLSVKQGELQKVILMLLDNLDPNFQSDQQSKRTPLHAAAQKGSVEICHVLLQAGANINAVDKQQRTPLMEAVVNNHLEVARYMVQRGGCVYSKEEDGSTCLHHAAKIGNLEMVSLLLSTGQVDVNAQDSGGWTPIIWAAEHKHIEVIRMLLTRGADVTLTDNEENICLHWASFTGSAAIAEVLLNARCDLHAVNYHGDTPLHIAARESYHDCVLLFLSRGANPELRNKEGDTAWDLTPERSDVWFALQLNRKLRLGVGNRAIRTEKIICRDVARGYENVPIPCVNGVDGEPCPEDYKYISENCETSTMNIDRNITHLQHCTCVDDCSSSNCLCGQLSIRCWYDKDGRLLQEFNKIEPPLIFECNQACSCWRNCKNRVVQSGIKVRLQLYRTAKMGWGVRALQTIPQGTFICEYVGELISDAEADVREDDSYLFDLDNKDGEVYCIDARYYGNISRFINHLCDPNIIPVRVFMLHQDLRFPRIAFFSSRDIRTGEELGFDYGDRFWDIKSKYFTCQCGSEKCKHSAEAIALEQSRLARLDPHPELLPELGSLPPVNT
Structure (SMILES),Potency,"activity, negative = inhibition"
O=C1CC(Sc2nnnn2-c2ccccc2)C(=O)N1c1cccc(Cl)c1 (stereo unspecified),active: 0.891 µM,–
CN(CC(=O)Nc1ccc(F)cc1)C(=O)COC(=O)c1cc([N+](=O)[O-])ccc1N1CCOCC1,"inconclusive: 44.7 µM [inhibitor, partial curve, poor fit]",–
COc1ccc(/C=C/c2nnc(NC(=O)CSc3ccc(Cl)cc3)s2)cc1,–,inactive: 41.6%
Cc1nn(-c2ccccc2)c(N)c1Sc1cccc([N+](=O)[O-])c1,"inconclusive: 39.8 µM [inhibitor, single point]",–
CCN(Cc1ccccc1)C(=O)Cc1c[nH]c2ccccc12,"inconclusive: 70.8 µM [inhibitor, partial curve, poor fit]",–
CC(C)Cn1c(=O)c2ccccc2n2c(CCC(=O)N3CCN(c4cccc(Cl)c4)CC3)nnc12,–,inactive: 7.95%
COc1cc(/C=N/NC(=O)C(N)=O)cc(OC)c1O,"inconclusive: 6.31 µM [inhibitor, single point]",–
Cc1ccc(C(C)(C)C)c(OCCOCCN2CCCC2)c1,"inconclusive: 31.6 µM [inhibitor, single point]",–
CCOc1ccc(NC(=O)CN2CCC(n3cnc4cc(F)ccc43)CC2)cc1,"inconclusive: 79.4 µM [inhibitor, single point]",–
Cc1ccc(NC(=O)c2cc(-c3ccc(C)o3)nc3ccccc23)nc1,active: 2.24 µM,–
O=C(NC(=S)Nc1ccc(N2CCOCC2)cc1)c1cccc([N+](=O)[O-])c1,"inconclusive: 3.55 µM [inhibitor, partial curve, poor fit]",–
CCOC(=O)N(Cc1ccccc1)C(C(=O)O)C(C(=O)O)N(Cc1ccccc1)C(=O)OCC (stereo unspecified),"inconclusive: 3.16 µM [inhibitor, partial curve, poor fit]",–
COc1cccc(NC(=S)NCc2ccco2)c1,–,inactive: -8.68%
N#Cc1cccc(C(c2nnnn2C2CCCC2)N2CCCCCC2)c1 (stereo unspecified),"inconclusive: 89.1 µM [inhibitor, single point]",–
O=C(CSc1nc(-c2cccs2)nc2cc(=O)[nH]n12)Nc1ccccc1,–,inactive: 17.4%
CC1(C)Cc2ccccc2C2CC(O)C(=O)N21 (stereo unspecified),active: 22.4 µM,–
CCCC(=O)Nc1c(O)c2ccccc2[nH]c1=O,"inconclusive: 39.8 µM [inhibitor, single point]",–
O=C1CC(N2CCC(c3nc4ccccc4o3)CC2)C(=O)N1c1ccc(Cl)c(C(F)(F)F)c1 (stereo unspecified),–,inconclusive: -65.5% [inhibitor]
O=C(O)C1C2C=CC(O2)C1C(=O)NCCC1=CCCCC1 (stereo unspecified),"inconclusive: 22.4 µM [inhibitor, single point]",–
FC(F)(F)c1ccccc1-n1c(-c2cnccn2)n[nH]c1=S,"inconclusive: 28.2 µM [inhibitor, single point]",–
O=S(=O)(c1ccccc1)N1CCC2(CC1)CN(Cc1ccccc1)C2,–,inactive: 3.47% [at 12.7 µM]
CCOC(=O)c1sc(NC(=O)COc2ccc3c(c2)OCO3)nc1C,active: 39.8 µM,–
Cc1nc(NC(=O)CSc2nccn2C)sc1C(=O)N(C)C,–,inactive: 28.9% [at 102 µM]
CCOC(=O)CSC1=C(C#N)C(=O)NC(c2ccc(OC)c(OC)c2)S1 (stereo unspecified),–,inconclusive: -114% [inhibitor]

Structure (SMILES),Potency,"activity, negative = inhibition"
CCc1nnc(NC(=O)CN2C(=O)c3ccccc3S2(=O)=O)s1,–,inactive: -7.62%
Cn1c(=O)n(C)c2cc(NS(=O)(=O)c3ccc(F)cc3)c(NCc3ccccc3)cc21,active: 11.2 µM,–
COc1cc(S(=O)(=O)NC2CCCCC2)ccc1F,"inconclusive: 0.794 µM [inhibitor, partial curve, poor fit]",–
COC(CCN(C)C)(c1ccccc1)c1ccccc1,–,inactive: -3.15% [at 102 µM]
O=C(c1ccncc1)c1nccn1-c1ccccn1,"inconclusive: 89.1 µM [inhibitor, single point]",–
Cc1ccn2cc(-c3cccc(NC(=O)c4ccccc4)c3)nc2c1,"inconclusive: 22.4 µM [inhibitor, single point]",–
Cc1ccc(S(=O)(=O)/N=C2/NC(=O)/C(=C/c3ccc(Br)o3)S2)cc1,"inconclusive: 31.6 µM [inhibitor, single point]",–
COc1cc(C(CCN2CCN(c3ccccc3)CC2)c2c(OC)cc(OC)c3ccc(=O)oc23)cc(OC)c1OC (stereo unspecified),–,inconclusive: -90% [inhibitor]
CCN(CC(=O)Nc1ccccc1C(F)(F)F)C(=O)CN1C(=O)NC2(CCCC2)C1=O,–,inactive: -44.7% [at 102 µM]
Cc1ccccc1N(Cc1ccccc1F)S(C)(=O)=O,–,inactive: 15.3%
O=S(=O)(NCc1ccco1)c1cccc(S(=O)(=O)N2CCOCC2)c1,"inconclusive: 89.1 µM [inhibitor, single point]",–
Cc1cc(Cl)cc(Br)c1OCCNCC(C)O (stereo unspecified),–,inactive: 5.33% [at 12.7 µM]
COc1ccc2c(c1)n([O-])c1c([n+]2=O)CCC1,–,inactive: -21%
CCC(C)(C)C(=O)O[C@@H]1C[C@H](C)C=C2C=C[C@H](C)[C@@H](CC[C@H]3C[C@@H](O)CC(=O)O3)[C@H]21,–,inactive: 15% [at 21.5 µM]
CN1/C(=C/C(=O)CSc2ccccc2C(=O)O)C(C)(C)c2ccccc21,"inconclusive: 56.2 µM [inhibitor, partial curve, poor fit]",–
COc1ccc(-n2cnnc2SCC(=O)Nc2ccccc2F)cc1,–,inactive: -13% [at 102 µM]
CCn1ccc(C(=O)NC2=NCCS2)n1,"inconclusive: 100 µM [inhibitor, single point]",–
CCc1ccc(NC(=O)c2cnn(-c3c(C)cccc3C)c2C2CCN(C(=O)OC(C)(C)C)CC2)cc1,–,inactive: -7.32%
O=C(CCSc1ccccc1)Nc1nc2c(s1)COc1ccccc1-2,"inconclusive: 35.5 µM [inhibitor, single point]",–
COCCN(C(=S)Nc1ccc(OC)c(Cl)c1)C1CCN(C(C)C)CC1,"inconclusive: 31.6 µM [inhibitor, single point]",–
CCN1C(=O)/C(=C\N2CCCCCC2)SC1=S,"inconclusive: 89.1 µM [inhibitor, single point]",–
Cc1ccc(C2(C)NC(=O)N(CC(=O)Nc3cc(S(=O)(=O)N4CCCCC4)ccc3OC(C)C)C2=O)cc1 (stereo unspecified),"inconclusive: 56.2 µM [inhibitor, partial curve, poor fit]",–
CCC(=O)Nc1ccc(C(=O)OCc2ccccc2Cl)cc1,–,inactive: 23.8%
O=C1NC(=O)C(c2cccs2)(c2cccs2)N1,"inconclusive: 89.1 µM [inhibitor, single point]",–

Structure (SMILES),Potency,"activity, negative = inhibition"
O=C(CSc1nc2ccccc2s1)Nc1cc(S(=O)(=O)N2CCOCC2)ccc1O,"inconclusive: 15.8 µM [inhibitor, partial curve, poor fit]",–
O=C(O)c1cccc2c1/C(=N/Nc1ccc([N+](=O)[O-])cc1[N+](=O)[O-])c1ccccc1-2,"inconclusive: 79.4 µM [inhibitor, single point]",–
COCC(=O)N1CCC2(CCCN(c3ccncc3)C2)CC1,–,inactive: 4.08% [at 12.7 µM]
COCCn1c(SCc2cccnc2)nnc1-c1c[nH]c2ccccc12,"inconclusive: 89.1 µM [inhibitor, partial curve, poor fit]",–
COCCOC(=O)c1c(C)n(C)c2ccc(OC(=O)c3c(OC)cccc3OC)cc12,active: 8.91 µM,–
CC(=O)Nc1ccc(/C=N/NS(=O)(=O)c2cc(C)ccc2C)cc1,active: 50.1 µM,–
O=C(Nc1nnc(SCc2ccccc2)s1)c1ccco1,"inconclusive: 89.1 µM [inhibitor, partial curve, poor fit]",–
COc1ccc(Cc2nnc(NC(=O)Nc3cccc(OC)c3)s2)cc1,–,inactive: 14.5% [at 102 µM]
COc1cc(/C=C2\SC(=S)N(CCC(=O)N3CCCCC3)C2=O)cc(OC)c1OC,"inconclusive: 89.1 µM [inhibitor, single point]",–
Cn1c(=O)cc(SCC(=O)NCc2ccc(F)cc2)c2cc(Cl)ccc21,–,inactive: 6.78%
COC(=O)c1ccc2nc(C)cc(Nc3ccc(N(C)C)cc3)c2c1,active: 50.1 µM,–
O=C(NCCc1ccccc1)C(=O)NCC(c1cccs1)S(=O)(=O)c1cccs1 (stereo unspecified),"inconclusive: 3.55 µM [inhibitor, single point]",–
CCn1c2ccccc2c2cc(NC(=O)c3ccco3)ccc21,–,inconclusive: -63.7% [inhibitor]
COc1ccccc1C(=O)NC(=S)NNC(=O)c1sc2ccccc2c1Cl,"inconclusive: 8.91 µM [inhibitor, partial curve, poor fit]",–
O=C(NCc1ccncc1)C(=O)Nc1ccc2c(c1)OCO2,"inconclusive: 56.2 µM [inhibitor, partial curve, poor fit]",–
O=C(Nc1ccncc1)Nc1cccc(Cl)c1Cl,–,inactive: -2.45% [at 102 µM]
CCCc1nc(SCC(=O)c2ccc(F)cc2)c2ccccc2n1,"inconclusive: 8.91 µM [inhibitor, full curve]",–
CC(NCC(=O)Nc1cc(S(=O)(=O)N2CCCCCC2)ccc1Cl)c1ccccc1 (stereo unspecified),active: 10 µM,–
COC(=O)c1cccc(NC(=O)/C(=C\c2ccccc2)NC(=O)c2ccccc2Cl)c1,"inconclusive: 89.1 µM [inhibitor, single point]",–
COc1cc(C2=NOC(C(=O)Nc3cccnc3)C2)cc(OC)c1OC (stereo unspecified),"inconclusive: 79.4 µM [inhibitor, partial curve, poor fit]",–
CC(Sc1nnc(-c2cccnc2)n1-c1ccccc1)C(=O)NCc1ccc2c(c1)OCO2 (stereo unspecified),"inconclusive: 0.355 µM [inhibitor, partial curve, poor fit]",–
CCOC(=O)/C(C#N)=N/Nc1ccc(S(=O)(=O)N2CCc3ccccc32)cc1,"inconclusive: 20 µM [inhibitor, single point]",–
CC(NC(=O)c1c(O)c2ccccc2[nH]c1=O)c1ccccc1 (stereo unspecified),–,inactive: 1.8% [at 102 µM]
